Test results taken from FireProtDB (doi:10.1021/bi060525p).

Details: Gallus gallus, Thermal, Phosphate 10 mM

Lysozyme C wild type (chain not printed)
Tm (pH 4.2, Absorbance): 73.3 °C | Tm (pH 4.2, CD): 74 °C | Tm (pH 4.2, DSC): 73.2 °C | Tm (pH 4.2, Fluorescence): 75 °C | Tm (pH 4.2, Optical Density): 69.3 °C | Tm (pH 7.4, Absorbance): 75 °C | Tm (pH 7.4, CD): 80 °C | Tm (pH 7.4, DSC): 77.7 °C | Tm (pH 7.4, Fluorescence): 80 °C
